PubChem BioAssay AID493208 (National Center for Advancing Translational Sciences (NCATS), 2011)
Screen size: about 44,000 compounds; about 340 (0.77%) were called active. Inconclusive results (about 5%) are left out. Calls follow the shape of the dose curve; as a rule, active = well fitted inhibition curve with a large enough effect; inconclusive = small, poorly fitted or top-dose-only effect; inactive = flat fitted curve, though single readings scatter. The list shows a part of the results.

Test: Acumen qHTS Assay for Inhibitors of the mTORC1 Signaling Pathway in MEF (Tsc2-/-, p53-/-) Cells: Sytravon;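 also: plate controls were DMSO for no effect and rapamycin for full effect; nearly all actives have a fitted effect of over 50% in size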
Conditions: phospho-rpS6 immunofluorescence/PI, 24 h; series mostly up to 38.3 µM; activity change, negative = inhibition: at the top concentration
How it was run: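 Plate MEFs (Tsc2-/-, p53-/-, empty vector) in DMEM/10% FBS; after 24 h add compound, incubate 24 h at 37 degree Celsius; fix in PFA/TX-100, block, stain phospho-rpS6 and 10 uM PI; scan at 488 nm; report % positive cells.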

Row | Structure (SMILES) | activity change, negative = inhibition
1 | COc1ccc(S(=O)(=O)NC(C)C)cc1-n1cnnn1 | inactive: -1.26%
2 | O=C(Nc1ccc(OC(F)(F)F)cc1)C1CCCN(S(=O)(=O)c2ccc(Br)s2)C1 (stereo unspecified) | inactive: -1.45%
3 | O=C(Cc1csc2ccccc12)NCc1ccc(F)cc1 | inactive: -0.622%
4 | COc1ccc(Br)cc1CNC(=O)CN1C(=O)CCCc2ccccc21 | inactive: 4.73%
5 | CC(C)(C)c1ccc(C(=O)Nc2nc3nc(-c4ccccc4)cc(=O)n3[nH]2)cc1 | inactive: -1.3%
6 | Cc1ccc(NC(=O)Cn2c(SCc3cccc(F)c3)nc3ccncc32)c(C)c1 | inactive: -0.865%
7 | C#CC(C)(CC)NC(=O)Cn1nnc(-c2ccc(OCc3ccccc3Cl)cc2)n1 (stereo unspecified) | inactive: -0.268%
8 | COc1ccc(C(=O)NCC(c2cccnc2)N2CCN(c3ccccc3OC)CC2)cc1 (stereo unspecified) | inactive: -1.73%
9 | COc1cccc(NC(c2nnc(-c3ccccc3)o2)c2ccc(F)cc2Cl)c1 (stereo unspecified) | inactive: -2.72%
10 | COCCCNC(=O)C1CCCN(c2ncnc3onc(C)c23)C1 (stereo unspecified) | inactive: -13.9%
11 | COc1ccc(CCNC(=O)c2ccc3c(Cl)c4c(nc3c2)CCCC4)cc1OC | inactive: -12.1%
12 | Cc1c(CCC(=O)NCc2ccc(F)cc2)c(=O)oc2cc(O)ccc12 | inactive: -9.63%
13 | CCCN(CCC)C(=O)c1c[nH]c2ccc(S(=O)(=O)N(C)c3ccc(OCC)cc3)cc2c1=O | inactive: -2.18%
14 | CCc1ccc(C(=O)c2cn(CC(=O)Nc3ccc4c(c3)OCCO4)c3ccc(CC)cc3c2=O)cc1 | inactive: -9.91%
15 | Cc1ccc2oc(C(=O)Nc3nc(-c4ccc(F)cc4)ns3)c(C)c2c1 | inactive: 3.03%
16 | Cc1ccccc1OCC(=O)Nc1ccc(C(=O)OCc2cc(=O)n3c(C)csc3n2)cc1 | inactive: 0%
17 | COc1cccc(NC(=O)CSC2=Nc3ccccc3C3=NC(CC(=O)NCc4cccs4)C(=O)N23)c1 (stereo unspecified) | inactive: -3.54%
18 | COc1ccc(C2c3c(oc4cc(C)cc(C)c4c3=O)C(=O)N2Cc2ccco2)cc1OC (stereo unspecified) | inactive: 1.53%
19 | Cc1cccc(N2CCN(C(=O)c3cc4c(=O)[nH]c5ccc(C)cc5c4s3)CC2C)c1 (stereo unspecified) | inactive: -6.65%
20 | COc1ccc(CNC(=O)CSCc2cnn(-c3ccccc3)c2-n2cccc2)cc1OC | inactive: -4.33%
21 | CC(=O)N1CCN(c2nc3c(F)cc(F)cc3s2)CC1 | inactive: 0.104%
22 | COc1ccc(Cn2c(CNC(=O)Cc3cccc([N+](=O)[O-])c3)nc3cccnc32)cc1 | inactive: -5.26%
23 | Cc1cc(C)cc(NC(=O)c2sc3nc[nH]c(=O)c3c2C)c1 | inactive: -12.5%
24 | CCOC(=O)Cn1c(=O)n(CC2CCCO2)c2nc(-c3ccccc3Cl)nc(C(N)=O)c21 (stereo unspecified) | inactive: -0.0481%

Row | Structure (SMILES) | activity change, negative = inhibition
25 | CCOC(=O)c1ccc(CN(Cc2ccc(OC)cc2)S(=O)(=O)c2cccc(C(F)(F)F)c2)cc1 | inactive: 3.08%
26 | O=c1c(N2CCc3ccccc3C2)csc2ccc(F)cc12 | inactive: 3.93%
27 | CCOc1ccc(N(CC)C(=O)c2noc3c2COc2ccc(C)cc2-3)cc1 | inactive: -7.11%
28 | COc1ccccc1C(=O)Nc1c(C(=O)c2ccccc2)oc2ccccc12 | inactive: -2.43%
29 | CC1=C(C(=O)Nc2ccccc2C)C(c2cccs2)n2nc(SCc3cc(C)ccc3C)nc2N1 (stereo unspecified) | inactive: -6.46%
30 | CCOc1ccccc1NC(=O)C1=C(C)Nc2ncnn2C1c1sccc1C (stereo unspecified) | inactive: 0%
31 | Cc1ccc(CNC(=O)c2c(-c3ccc(Br)cc3)noc2C)o1 | inactive: 0.882%
32 | O=C(CCCn1c(=O)c2cccn2c2cccnc21)Nc1ccccc1C(F)(F)F | inactive: 3.52%
33 | Cc1c(C(=O)NCc2ccccc2)oc2ccc(S(=O)(=O)N3CCC(C)CC3)cc12 | inactive: -20.6%
34 | O=C(NCCc1ccc(Cl)cc1)C(=O)NCC(c1ccco1)S(=O)(=O)c1ccccc1 (stereo unspecified) | inactive: -5.58%
35 | Cc1ccc(NC(=O)C(=O)NCC(c2cccnc2)N2CCN(C)CC2)cc1 (stereo unspecified) | inactive: -12%
36 | CCn1c(CN2CCCCC2)nc2cc(NC(=O)COc3ccccc3C(C)(C)C)ccc21 | inactive: -1.14%
37 | Cc1coc2c1c(C)cc1oc(=O)c(CC(=O)NCCc3ccc(Cl)cc3)c(C)c12 | inactive: -6.01%
38 | CCn1c2c(c(=O)n3ncc(C(=O)Nc4ccc(C(=O)OC)cc4)c13)CN(Cc1ccc(OC)cc1)CC2 | inactive: 0.203%
39 | COc1ccc(C)cc1NC(=O)c1ccc2nc(Cc3ccccc3)oc2c1 | inactive: -16.1%
40 | COc1ccc(CCNC(=O)c2c(O)nc3c(C)cccn3c2=O)cc1OC | inactive: -26.5%
41 | COc1ccc(NC(=O)c2c(N)c(C(=O)c3ccc(OC)cc3)n3ccccc23)cc1 | inactive: 3.48%
42 | COc1ccc(N2CCN(C(=O)c3cc(-c4ccc(C)c(F)c4)on3)CC2)cc1 | inactive: -5.34%
43 | Cc1c(C(=O)NCCc2ccc(Cl)cc2)cccc1-n1cnc2cccnc21 | inactive: -9.06%
44 | COc1ccc(N2CCN(C(=O)CSc3nc4ccccc4nc3Cc3ccc(Cl)cc3)CC2)cc1 | inactive: -29.1%
45 | CCOC(=O)N1CCc2c(sc3c2c(=O)n(-c2ccc(CC)cc2)c(=O)n3Cc2cccc(Cl)c2)C1 | inactive: 5.11%
46 | Cc1ccc(C)c(N2CCN(C(=O)C3CCC(CNS(=O)(=O)c4cccs4)CC3)CC2)c1 (stereo unspecified) | inactive: -8.29%
47 | CCC1CN(C(=O)N2CCC(C(=O)NCCc3ccc(OC)c(OC)c3)CC2)c2ccccc2O1 (stereo unspecified) | inactive: 8.53%
48 | Cc1ccc(CNC(=O)CSc2c(C)cnc3c2c(=O)n(C)c(=O)n3C)cc1 | inactive: 0.17%

Row | Structure (SMILES) | activity change, negative = inhibition
49 | Cc1ccc(NC(=O)CN2C(=O)C(c3ccc(F)cc3)=NC23CCCCCC3)c(C)c1 | inactive: -0.548%
50 | CCCCOc1ccc(C2C(=O)N(C3CCCCC3)CC(=O)N2C2CCCCC2)cc1 (stereo unspecified) | inactive: 6.33%
51 | Cc1ccc(NC(=O)C2CCN(S(=O)(=O)c3cccc4nsnc34)CC2)cc1 | inactive: -0.205%
52 | CCn1cc(C(=O)OCC(=O)Nc2cc(Cl)ccc2C)c(=O)c2ccc(C)nc21 | inactive: 2.83%
53 | Cc1ccc(C)c(N2CCN(C(=O)c3cc4cc5ccc(C)cc5nc4o3)CC2)c1 | inactive: -3.2%
54 | CC1CCN(S(=O)(=O)c2ccc3nc(NCc4ccc(N(C)C)cc4)ccc3c2)CC1 | inactive: -20%
55 | CCc1cccc(NC(=O)Cn2c(=O)n(CCCCCC(=O)NCc3ccc(F)cc3)c(=O)c3sccc32)c1 | inactive: -13.4%
56 | COc1ccc(C2C=C(c3ccccc3)Nc3nc(NC(C)=O)nn32)cc1 (stereo unspecified) | inactive: -0.873%
57 | CCn1nc(C)c2c(-c3ccccc3)cc(=O)n(C(C)C(=O)Nc3ccc(OC)c(OC)c3)c21 (stereo unspecified) | inactive: 4.59%
58 | Cc1cccc(NC(=O)Nc2cccs2)c1C | inactive: -2.25%
59 | CCOC(=O)c1ccccc1NC(=O)CN(c1ccccc1)S(=O)(=O)c1ccc(OCC)cc1 | inactive: -14.4%
60 | CCCCCCc1c(C)c2c(cc(C)c3c(C)coc32)oc1=O | inactive: -8.98%
61 | Cc1ccc(C)c(NC(=O)Cn2ncc3c(C)n(Cc4ccc(F)cc4)c(C)c3c2=O)c1 | inactive: -0.435%
62 | CC1=C(c2ccc(C)c(C)c2)S(=O)(=O)N(Cc2ccc(C(=O)NCc3ccccc3F)cc2)C1=O | inactive: 2.9%
63 | N#C/C(=C\c1ccc(O)cc1)C(=O)NCC1CCCO1 (stereo unspecified) | inactive: -0.53%
64 | Cc1cc(C)cc(NC(=O)Cn2nnc(-c3ccccc3F)n2)c1 | inactive: -36.5%
65 | COc1ccc(-c2cc(C(F)(F)F)n3nc(C)c(-c4ccccc4)c3n2)cc1OC | inactive: -10.9%
66 | O=C(CCc1cn(Cc2ccc(F)cc2)c2ccccc12)NC1CCCCC1 | inactive: 1.47%
67 | CCOC(=O)c1c(Nc2ccc(C)c(C)c2)nnc(-c2ccccc2)c1-c1ccccc1 | inactive: -7.95%
68 | Cc1ccc(C)c(OCC(=O)Nc2sc3c(c2C#N)CCCC3)c1C | inactive: -19.7%
69 | CCCC(=O)Nc1cc2nn(-c3ccc(OC)cc3)nc2cc1C | inactive: -5.17%
70 | CCOc1ccc(NC(=O)NCCN2CCN(c3cc(Cl)ccc3C)CC2)cc1 | inactive: -11.4%
71 | O=C(NCCc1ccccc1)c1c[nH]c2ccc(S(=O)(=O)Nc3ccc(F)cc3F)cc2c1=O | inactive: 6.05%
72 | Cc1cc(C)c(NC(=O)Cn2c(=O)n(CCC(C)C)c(=O)c3cccnc32)c(C)c1 | inactive: -0.129%

Row | Structure (SMILES) | activity change, negative = inhibition
73 | COc1ccc(CNC(=O)CN2N=C(c3ccc(Cl)cc3)CCC2=O)cc1 | inactive: -1.32%
74 | CCc1ccc(C(=O)c2cn(CC(=O)NCCc3ccccc3)c3nc(C)ccc3c2=O)cc1 | inactive: -5.76%
75 | COc1cccc(NC(=O)C2CCCN(c3ncnc4onc(-c5ccc(F)cc5)c34)C2)c1 (stereo unspecified) | inactive: 4.01%
76 | COc1ccc(Cn2c(SCc3ccc(C(=O)NCc4ccc(C)cc4)cc3)nc3cccnc32)cc1 | inactive: -7.97%
77 | O=C(NCCc1ccccc1)c1ccc2c(c1)N(Cc1ccc(Cl)cc1)C(=O)c1ccccc1S2(=O)=O | inactive: -9.76%
78 | Cc1ccc(N2CC(NC(=O)CCCc3ccccc3)CC2=O)cc1 (stereo unspecified) | inactive: -4.33%
79 | CCN(c1ccccc1C)S(=O)(=O)c1nnc(NC(=O)c2ccc(OC)c(OC)c2)s1 | inactive: 5.27%
80 | Cc1ccc(C2=Nc3ccccc3N=C(c3ccc(F)cc3)C2)c(O)c1 | inactive: -0.507%
81 | CCc1nc(SC)ncc1C(=O)NCc1cccc(Br)c1 | inactive: -0.8%
82 | O=C(Cn1nc(Cc2cccnc2)c2ccccc2c1=O)N1CCN(c2ccccc2F)CC1 | inactive: 4.66%
83 | Cc1ccc(Cl)cc1N1CCN(c2nc3ccc(C(=O)c4ccccc4)cc3n3cnnc23)CC1 | inactive: -3.45%
84 | Cc1cc(O)c2c(C)c(CC(=O)NCc3ccccc3Cl)c(=O)oc2c1 | inactive: 2.78%
85 | COc1ccc(CNC(=O)c2ccc(CN3C(=O)C(C)=C(c4ccc(C)cc4)S3(=O)=O)cc2)cc1 | inactive: 1.57%
86 | Cc1ccc(-n2ncc(C(=O)Nc3ccc4c(c3)OCCO4)c2C2CCN(C(=O)OC(C)(C)C)CC2)cc1C | inactive: 6.63%
87 | CC1=C(C(=O)NCc2cccc(F)c2)C2(CCCCCC2)OC1=O | inactive: -2.38%
88 | COc1ccc(Nc2nc3ccc(C)cc3nc2-n2nc(C)cc2C)cc1Cl | inactive: 6.15%
89 | COc1ccccc1N1CCN(C(=O)Cn2ncc3c2-c2cc(C)ccc2OC3)CC1 | inactive: -2.89%
90 | COCCN1CCc2nc(SCC(=O)Nc3ccc(C)c(Cl)c3)[nH]c(=O)c2C1 | inactive: 3.91%
91 | COc1ccccc1NC(=O)CC1Sc2ccc(C(F)(F)F)cc2NC1=O (stereo unspecified) | inactive: -9.69%
92 | CCOc1ccccc1CNC(=O)Cn1c(=O)c2cccn2c2ccc(F)cc21 | inactive: -2.34%
93 | COc1ccc(-c2onc(C)c2C)cc1S(=O)(=O)NCc1cccs1 | inactive: 0%
94 | CCOC(=O)c1noc2ncn(CC(=O)Nc3ccc(F)cc3Cl)c(=O)c12 | inactive: -6.41%
95 | Cc1ccc(OCCSc2nc3ccccc3n2CC(=O)N2CCOCC2)cc1 | inactive: 2.28%
96 | CC1=C(C(=O)OCc2ccc(C)cc2)C(c2ccccc2C(F)(F)F)CC(=O)N1 (stereo unspecified) | inactive: -12.1%
